Measurements: PubChem BioAssay AID463173 (ICCB-Longwood Screening Facility, Harvard Medical School, 2010)
Screen size: about 52,000 compounds; about 4,300 (8.3%) were called active. Rule as the data show it: active = survival mostly below about 52% (no sharp cut-off); inactive = mostly above about 56%. The list shows a part of the results.

tested on: DeltatarO mutant; test: growth inhibition of S. aureus wild type versus tarO mutant, primary screen, teichoic acid synthesis inhibitors, RN4220, OD600 (AID 463173); settings: OD600, 18 h, active compounds read low, screened at 18.75 µg/mL (by protocol)

| Compound | survival |
| --- | --- |
| CCc1ccc(N2CCn3c2nc2c3c(=O)n(Cc3c(F)cccc3Cl)c(=O)n2C)cc1 | inactive: 87% |
| CCOC(=O)C1CCCN(S(=O)(=O)c2ccc(Cl)cc2)C1 (centres undefined) | inactive: 95% |
| Cc1nnc2c(N3CCN(c4ccccc4)CC3)nc3ccc(C(=O)c4ccccc4)cc3n12 | inactive: 80% |
| CN(C(=O)Nc1ccccc1)C12CC3CC(CC(C3)C1)C2 | inactive: 70% |
| CC(=O)N(Cc1cccnc1)c1nc2c(C)cccc2s1 | inactive: 77% |
| Cn1cc(-c2cc3n(n2)CCC(=O)N3CCCC(=O)Nc2ccc(F)cc2F)c2ccccc21 | inactive: 128% |
| Cc1cc(C)cc(-n2ccnc2SCC(=O)Nc2ccc3c(c2)OCO3)c1 | inactive: 74% |
| Cc1cc2nc(-c3ccc(Br)cc3)cc(C(F)(F)F)n2n1 | active: 37% |
| COc1cc(C(c2nnnn2C2CCCCC2)N2CCc3ccccc3C2)ccc1O (centres undefined) | inactive: 62% |
| COc1ccc(CCn2c(=O)c3cccnc3n(CC(=O)Nc3cccc(C)c3)c2=O)cc1OC | inactive: 81% |
| CCOC(=O)C1CCN(C(=O)Cn2nc(C)n3c(cc4cc(C)ccc43)c2=O)CC1 | inactive: 84% |
| COc1ccc(S(=O)(=O)NCc2ccc3c(c2)CCN3C(=O)c2ccc(C)cc2)cc1Cl | inactive: 112% |
| Cc1c(CNCCc2ccc(S(N)(=O)=O)cc2)c(C(=O)O)c(C)n1Cc1ccc(Cl)cc1 | inactive: 105% |
| CCCCOC(=O)c1ccc(Nc2nc3ccccc3c3nnc(C)n23)cc1 | active: 25% |
| CC(=NCc1cccnc1)c1c(C)[nH]n(-c2nc3ccccc3s2)c1=O | inactive: 103% |
| CCOc1ccc(/C=C(\C#N)C(=O)Nc2sc3c(c2C(=O)OC)C(C(=O)OC)CC3)cc1OC (centres undefined) | inactive: 60% |
| O=C(C1CC1)N1CCc2cc(Br)cc(S(=O)(=O)N3CCN(c4ccccc4)CC3)c21 | inactive: 68% |
| CCc1ccc(NS(=O)(=O)c2ccc(C(=O)N(C)C)s2)cc1 | inactive: 72% |
| Cn1c(=O)c2sccc2n2c(CCC(=O)N3CCN(c4cccc(Cl)c4)CC3)nnc12 | inactive: 193% |
| O=C(CSc1nccn1Cc1ccc(F)cc1)Nc1ccc2c(c1)OCO2 | inactive: 113% |
| Cc1ccc(CNC(=O)CN2C(=O)C3(SCC(=O)N3c3cc(C)cc(C)c3)c3ccccc32)cc1 (centres undefined) | inactive: 91% |
| COc1ccc(N2CCN(C(=O)C3CCN(S(=O)(=O)Cc4ccccc4)CC3)CC2)cc1 | inactive: 78% |
| Cc1nc(-c2cccc(F)c2)sc1CCNC(=O)c1ccc(F)c(F)c1 | inactive: 77% |

| Compound | survival |
| --- | --- |
| CCOc1ccc(Nc2oc(-c3ccc(COc4ccccc4C)o3)nc2C#N)cc1 | inactive: 64% |
| CCC(C)NC(=O)C1CCN(c2ncccn2)CC1 (centres undefined) | inactive: 95% |
| CN(C(=O)CSc1nc2ccccc2n1CC(=O)N(C)c1ccc(F)cc1)c1ccccc1 | inactive: 76% |
| COc1cc(NC(=O)c2cc(-c3ccc(Cl)c(Cl)c3)on2)cc(OC)c1OC | inactive: 111% |
| Cc1ccc(Nc2nc(Nc3ccc(C)c(C)c3)nc(N3CCOCC3)n2)cc1C | active: 34% |
| CCc1cccc(C)c1NC(=O)C1CCN(S(=O)(=O)Cc2ccccc2)CC1 | inactive: 84% |
| COc1cc(C(=O)N2CCN(c3ccc(Nc4ccccc4)nn3)CC2)cc(OC)c1OC | inactive: 80% |
| COc1ccc(N2CCN(CCCNC(=O)c3cc(Nc4ccccc4OC)nc4ccccc34)CC2)cc1 | inactive: 62% |
| CC1CCCCN1S(=O)(=O)c1cc2c3c(c1)CC(=O)N3CCC2 (centres undefined) | inactive: 101% |
| Cc1ccc(CNC(=O)CCCCn2c(=O)c3ccccc3n(Cc3ccc(C)cc3)c2=O)cc1 | inactive: 67% |
| CC(=O)Nc1ccc2[nH]c(C)cc(=O)c2c1 | inactive: 99% |
| CCCCSCCCNC(=O)c1cn(C)c2ccc(S(=O)(=O)N3CCCC3)cc2c1=O | inactive: 76% |
| Cc1cc(C)cc(OCC(=O)N(Cc2ccc(Cl)cc2)CC2CCCO2)c1 (centres undefined) | inactive: 76% |
| CCOC(=O)c1c(S(=O)(=O)N2CCC(C(=O)NCc3ccccc3OC)CC2)c(C)n(C)c1C | inactive: 94% |
| O=C(NC1CCCC1)c1ccc2c(=O)n(Cc3ccccc3)c(SCc3ccccc3)nc2c1 | inactive: 92% |
| Cc1ccc(-n2nc(C(=O)Nc3ccc(C)c(F)c3)c(=O)n(C)c2=O)cc1 | inactive: 77% |
| COc1ccc(-c2nc3ccc(C)cn3c2Nc2ccc3c(c2)OCO3)cc1 | inactive: 128% |
| Cc1oc(-c2cccc(Cl)c2)nc1CN1CCCC(C(=O)NCc2ccc(Cl)cc2)C1 (centres undefined) | active: -1% |
| Cc1ccccc1CNC(=O)c1sc2ncnc(N(C)C3CCCCC3)c2c1C | inactive: 69% |
| O=S(=O)(c1ccc2[nH]c3c(c2c1)CCCCC3)N1CCN(c2cccc(Cl)c2)CC1 | inactive: 94% |
| CCNC(=O)CCSc1nc2cc(Cl)ccc2o1 | inactive: 85% |
| CCOC(=O)c1oc2ccccc2c1NC(=O)CN1CCOCC1 | inactive: 92% |
| CC1=C(C(=O)Nc2cccc(C(F)(F)F)c2)C2(CCCCC2)OC1=O | inactive: 95% |

| Compound | survival |
| --- | --- |
| Cc1cccc(NC(=O)c2sc(-n3nc(C)c(CCC(C)C)c3C)nc2C)c1C | inactive: 62% |
| COc1cc(OC)cc(C(=O)Nc2cccc(-c3cn4cccnc4n3)c2)c1 | inactive: 117% |
| O=C(Cn1c(=O)n(Cc2ccc(C(=O)NCc3ccccc3Cl)cc2)c(=O)c2ccccc21)Nc1ccc(F)c(Cl)c1 | inactive: 99% |
| COc1ccc(N2CC(NC(=O)COc3ccc4ccccc4c3)CC2=O)cc1 (centres undefined) | inactive: 95% |
| O=C(Cn1c(-c2cccs2)cc2ccccc21)NCc1ccccc1Br | inactive: 98% |
| COc1cccc(C(=O)Nc2ccccc2-c2nc3ccccc3s2)c1 | active: 33% |
| CN(C)S(=O)(=O)c1ccc2c(c1)N(CC(=O)N1CCN(c3ccccc3F)CC1)CCS2 | inactive: 119% |
| CCc1cccc(C)c1NC(=O)CN1C(=O)C2(SCC(=O)N2c2cc(C)cc(C)c2)c2ccccc21 (centres undefined) | inactive: 90% |
| Cc1cccc(CNC(=O)CN2C(=O)CCCc3ccccc32)c1 | inactive: 91% |
| Cc1ccc(-c2nc(CS(=O)(=O)CC(=O)NCc3ccccc3Cl)c(C)o2)cc1 | inactive: 56% |
| O=C(O)C(c1ccccc1)N1CCCC1 (centres undefined) | inactive: 89% |
| CCOc1ccccc1NC(=O)CN1CCCN(Cc2cccc(Cl)c2)S1(=O)=O | inactive: 96% |
| COc1cc(NC(=O)c2cccc(F)c2)ccc1NC(=O)c1cc2ccccc2o1 | inactive: 56% |
| CC1CCC2(CC1)N=C(c1ccccc1)C(=O)N2CC(=O)Nc1ccc(F)c(Cl)c1 (centres undefined) | inactive: 50% |
| CCOC(=O)c1cccc(NS(=O)(=O)c2cc3[nH]c(=O)c(=O)[nH]c3cc2C)c1 | inactive: 87% |
| Cc1nc2ncnn2c(C)c1CCC(=O)N1CCN(c2cccc(Cl)c2)CC1 | inactive: 86% |
| CCc1ccc(NC(=O)c2nnn(Cc3cccc(C(F)(F)F)c3)c2N)cc1 | inactive: 82% |
| COc1cccc(CNC(=O)c2ccc3c(c2)nc2n3CCCCC2)c1OC | inactive: 61% |
| COc1cccc(CNC(=O)COCc2cc(-c3ccc4c(c3)OCO4)on2)c1 | active: 37% |
| CCCOc1ccc(NC(=O)CC2C(=O)N(c3ccc(C)cc3)C(=O)N2Cc2cccc(OC)c2)cc1 (centres undefined) | active: 46% |
| Cc1ccc2c(c1C)NC(C(=O)O)C1CC=CC21 (centres undefined) | inactive: 85% |
| COc1cc2[nH]c(=O)c(C(=O)NCCN3CCNCC3)c(O)c2cc1OC | inactive: 67% |
| O=c1c2cc3c(nc2ncn1Cc1ccc(Cl)cc1)CCCC3 | inactive: 95% |

| Compound | survival |
| --- | --- |
| CCOC(=O)C1CCN(c2c(C(=O)c3ccc(C)cc3)cnc3ccc(F)cc23)CC1 | active: 2% |
| O=C1NC2(CCCCC2)C(=O)N1c1ccc(C(F)(F)F)cc1 | inactive: 86% |
| COc1ccc(NC(=O)CN2C(=O)c3ccccc3Sc3ccc(C(=O)N4CCOCC4)cc32)c(OC)c1 | inactive: 87% |
| CCN(CC)C(=O)Cn1cc(/C=C(\C#N)C(N)=O)c2ccccc21 | inactive: 87% |
| Cc1ccc2c(c1)cc(CN(Cc1ccco1)C(=O)N(C)C)c1nnnn12 | inactive: 92% |
| CSc1ccc(CC2C(=O)Nc3ccccc32)cc1 (centres undefined) | inactive: 77% |
| O=C(Cc1ccccc1F)N1CCC(c2nc3c(nnn3Cc3ccc(F)cc3)c(=O)[nH]2)CC1 | inactive: 72% |
| O=C(CS(=O)(=O)c1cccc2nsnc12)Nc1cc(F)ccc1F | inactive: 90% |
| CC(=O)/C=C(\C)Nc1ccccc1S | inactive: 99% |
| CCc1ccc(NC(=O)C2=CC(c3ccc4c(c3)OCO4)=NS(=O)(=O)N2C)cc1 | inactive: 80% |
| COc1ccc(NC(=O)Nc2c[nH]c(=O)[nH]c2=O)c(OC)c1 | inactive: 94% |
| Cc1cccc(-n2c(C)nc3cc(C(=O)NC4CCCCCC4)ccc32)c1 | inactive: 99% |
| CCOc1ccc(-c2nc(SCC(=O)NCCCOC)c(-c3ccccc3)[nH]2)cc1 | inactive: 121% |
| CCn1c(CN2CCOCC2)nc2cc(NC(=O)c3ccc([N+](=O)[O-])cc3)ccc21 | inactive: 81% |
| Cc1c(C(=O)N(Cc2ccc(Cl)cc2)CC2CCCO2)oc2ccc(F)cc12 (centres undefined) | inactive: 68% |
| COc1ccccc1CNC(=O)CSc1ncc2c(n1)-c1cc(Cl)ccc1N(Cc1ccccc1)S2(=O)=O | inactive: 80% |
| CCC(C)(C)n1nnnc1C(c1ccccc1)N1CCc2ccccc2C1 (centres undefined) | inactive: 79% |
| COc1ccc(OC)c(CCNc2nc3ccccc3c3nc(-c4cccnc4)nn23)c1 | inactive: 112% |
| Brc1ccc(-n2nc(-c3ccccc3)c3cnc4cc5c(cc4c32)OCO5)cc1 | inactive: 124% |
| Cc1ccc2[nH]c(CSc3nnc(NC(=O)c4ccc(Cl)cc4)s3)cc(=O)c2c1 | inactive: 99% |
